# This is one part of the list.
# B1: PNA (Arachis hypogaea), P02872 (protein)
# chain: MKPFCVFLTFFLLLAASSKKVDSAETVSFNFNSFSEGNPAINFQGDVTVLSNGNIQLTNLNKVNSVGRVLYAMPVRIWSSATGNVASFLTSFSFEMKDIKDYDPADGIIFFIAPEDTQIPAGSIGGGTLGVSDTKGAGHFVGVEFDTYSNSEYNDPPTDHVGIDVNSVDSVKTVPWNSVSGAVVKVTVIYDSSTKTLSVAVTNDNGDITTIAQVVDLKAKLPERVKFGFSASGSLGGRQIHLIRSWSFTSTLITTTRRSIDNNEKKIMNMASA
# Legend:
# Experiment in all cases: glycan array binding signal (z-score within array); higher = stronger binding
# Details in all cases: glycan notation: IUPAC condensed, linker removed
# [1] = target: Neu5Ac(a2-8)Neu5Ac(a2-3)Gal(b1-4)GlcNAc
# Procedure, shortened: (§1)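 Negative Z-scores can be read as non-binding. The Z-score is calculated within each array and then averaged across arrays of one protein sequence at different concentrations or buffers and across linkers. Arrays, 3228 in all, were curated from the Consortium for Functional Glycomics database and kept only where the protein sequence was available.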
# [2] = target: Neu5Ac(a2-8)Neu5Ac(a2-3)[Gal(b1-3)GalNAc(b1-4)]Gal(b1-4)Glc
# Procedure, shortened: as §1
# [3] = target: Neu5Ac(a2-8)Neu5Ac(a2-3)[GalNAc(b1-4)]Gal(b1-4)Glc
# Procedure, shortened: as §1
# [4] = target: Neu5Ac(a2-8)Neu5Ac(a2-6)Gal
# Procedure, shortened: as §1
# [5] = target: Neu5Ac(a2-8)Neu5Ac(a2-6)Glc
# Procedure, shortened: as §1
# [6] = target: Neu5Ac(a2-8)Neu5Ac(a2-8)Neu5Ac
# Procedure, shortened: as §1
# [7] = target: Neu5Ac(a2-8)Neu5Ac(a2-8)Neu5Ac(a2-3)Gal(b1-4)Glc
# Procedure, shortened: as §1
# [8] = target: Neu5Ac(a2-8)Neu5Ac(a2-8)Neu5Ac(a2-3)[Gal(b1-3)GalNAc(b1-4)]Gal(b1-4)Glc
# Procedure, shortened: as §1
# [9] = target: Neu5Ac(a2-8)Neu5Ac(a2-8)Neu5Ac(a2-3)[GalNAc(b1-4)]Gal(b1-4)Glc
# Procedure, shortened: as §1
# [10] = target: Neu5Ac(a2-8)Neu5Ac(a2-8)Neu5Ac(a2-6)Gal
# Procedure, shortened: as §1
# [11] = target: Neu5Ac(a2-8)Neu5Ac(a2-8)Neu5Ac(a2-8)Neu5Ac
# Procedure, shortened: as §1
# [12] = target: Neu5Ac(a2-8)Neu5Ac(a2-8)Neu5Ac(a2-8)Neu5Ac(a2-3)[GalNAc(b1-4)]Gal(b1-4)Glc
# Procedure, shortened: as §1
# [13] = target: Neu5Ac(a2-8)Neu5Ac(a2-8)Neu5Ac(a2-8)Neu5Ac(a2-8)Neu5Ac
# Procedure, shortened: as §1
# [14] = target: Neu5Ac(a2-8)Neu5Ac(a2-8)Neu5Ac(a2-8)Neu5Ac(a2-8)Neu5Ac(a2-8)Neu5Ac
# Procedure, shortened: as §1
# [15] = target: Neu5Ac(a2-8)Neu5Ac(a2-8)Neu5Ac(a2-8)Neu5Ac(a2-8)Neu5Ac(a2-8)Neu5Ac(a2-8)Neu5Ac
# Procedure, shortened: as §1
# [16] = target: Neu5Ac(a2-8)Neu5Ac(a2-8)Neu5Ac(a2-8)Neu5Ac(a2-8)Neu5Ac(a2-8)Neu5Ac(a2-8)Neu5Ac(a2-8)Neu5Ac
# Procedure, shortened: as §1
# [17] = target: Neu5Ac(a2-8)Neu5Ac(a2-8)Neu5Ac(a2-8)Neu5Ac(a2-8)Neu5Ac(a2-8)Neu5Ac(a2-8)Neu5Ac(a2-8)Neu5Ac(a2-8)Neu5Ac
# Procedure, shortened: as §1
# [18] = target: Neu5Ac(a2-8)Neu5Ac(a2-8)Neu5Ac(a2-8)Neu5Ac(a2-8)Neu5Ac(a2-8)Neu5Ac(a2-8)Neu5Ac(a2-8)Neu5Ac(a2-8)Neu5Ac(a2-8)Neu5Ac
# Procedure, shortened: as §1
# [19] = target: Neu5Ac(a2-8)Neu5Gc(a2-3)Gal(b1-4)GlcNAc
# Procedure, shortened: as §1
# [20] = target: Neu5Ac(a2-9)Neu5Ac(a2-3)Gal(b1-4)Glc
# Procedure, shortened: as §1
# [21] = target: Neu5Ac(b1-6)GalNAc
# Procedure, shortened: as §1
# [22] = target: Neu5Ac(b2-3)Gal(b1-4)Glc
# Procedure, shortened: as §1
# [23] = target: Neu5Ac(b2-6)Gal(b1-4)Glc
# Procedure, shortened: as §1
# [24] = target: Neu5Ac(b2-6)Gal(b1-4)GlcNAc
# Procedure, shortened: as §1
# [25] = target: Neu5Ac(b2-6)GalNAc
# Procedure, shortened: as §1
# [26] = target: Neu5Ac9Ac(a2-3)Gal(b1-3)GlcNAc
# Procedure, shortened: as §1
# [27] = target: Neu5Ac9Ac(a2-3)Gal(b1-3)[Fuc(a1-4)]GlcNAc
# Procedure, shortened: as §1
# [28] = target: Neu5Ac9Ac(a2-3)Gal(b1-4)GlcNAc
# Procedure, shortened: as §1
# [29] = target: Neu5Ac9Ac(a2-3)Gal(b1-4)[Fuc(a1-3)]GlcNAc
# Procedure, shortened: as §1
# [30] = target: Neu5Ac9Ac(a2-3)Gal(b1-4)[Fuc(a1-3)]GlcNAc(b1-3)Gal
# Procedure, shortened: as §1
# [31] = target: Neu5Ac9Ac(a2-6)Gal(b1-4)GlcNAc
# Procedure, shortened: as §1
# [32] = target: Neu5Ac9Me(a2-3)Gal(b1-4)Glc
# Procedure, shortened: as §1
# [33] = target: Neu5Gc(a2-3)Gal(b1-3)GlcNAc
# Procedure, shortened: as §1
# [34] = target: Neu5Gc(a2-3)Gal(b1-3)GlcNAc(b1-3)Gal(b1-4)Glc
# Procedure, shortened: as §1
# [35] = target: Neu5Gc(a2-3)Gal(b1-3)[Fuc(a1-4)]GlcNAc
# Procedure, shortened: as §1
# [36] = target: Neu5Gc(a2-3)Gal(b1-4)Glc
# Procedure, shortened: as §1
# [37] = target: Neu5Gc(a2-3)Gal(b1-4)GlcNAc
# Procedure, shortened: as §1
# [38] = target: Neu5Gc(a2-3)Gal(b1-4)GlcNAc(b1-3)Gal(b1-4)GlcNAc(b1-2)Man(a1-3)[Neu5Gc(a2-3)Gal(b1-4)GlcNAc(b1-3)Gal(b1-4)GlcNAc(b1-2)Man(a1-6)]Man(b1-4)GlcNAc(b1-4)GlcNAc
# Procedure, shortened: as §1
# [39] = target: Neu5Gc(a2-3)Gal(b1-4)[Fuc(a1-3)]GlcNAc
# Procedure, shortened: as §1
# [40] = target: Neu5Gc(a2-3)Gal(b1-4)[Fuc(a1-3)]GlcNAc(b1-3)Gal
# Procedure, shortened: as §1
# [41] = target: Neu5Gc(a2-6)Gal(b1-3)GlcNAc(b1-3)Gal(b1-4)Glc
# Procedure, shortened: as §1
# [42] = target: Neu5Gc(a2-6)Gal(b1-4)GlcNAc
# Procedure, shortened: as §1
# [43] = target: Neu5Gc(a2-6)Gal(b1-4)GlcNAc(b1-2)Man(a1-3)[Neu5Gc(a2-6)Gal(b1-4)GlcNAc(b1-2)Man(a1-6)]Man(b1-4)GlcNAc(b1-4)GlcNAc
# Procedure, shortened: as §1
# [44] = target: Neu5Gc(a2-6)GalNAc
# Procedure, shortened: as §1
# [45] = target: Neu5Gc(a2-8)Neu5Ac(a2-3)Gal(b1-4)GlcNAc
# Procedure, shortened: as §1
# [46] = target: Neu5Gc(a2-8)Neu5Gc(a2-3)Gal(b1-4)GlcNAc
# Procedure, shortened: as §1
# [47] = target: Neu5Gc(a2-8)Neu5Gc(a2-3)Gal(b1-4)GlcNAc(b1-3)Gal(b1-4)GlcNAc
# Procedure, shortened: as §1
# [48] = target: Neu5Gc(a2-8)Neu5Gc(a2-6)Gal(b1-4)GlcNAc
# Procedure, shortened: as §1
# [49] = target: Neu5Gc(b2-6)Gal(b1-4)GlcNAc
# Procedure, shortened: as §1
# [50] = target: Rha(a1-6)Glc
# Procedure, shortened: as §1
# [51] = target: Xyl(a1-6)Glc(b1-4)[Xyl(a1-6)]Glc(b1-4)[Xyl(a1-6)]Glc(b1-4)Glc
# Procedure, shortened: as §1
# [52] = target: Xyl(b1-2)[Man(a1-3)][Man(a1-6)]Man(b1-4)GlcNAc(b1-4)GlcNAc
# Procedure, shortened: as §1
# [53] = target: Xyl(b1-2)[Man(a1-3)][Man(a1-6)]Man(b1-4)GlcNAc(b1-4)[Fuc(a1-3)]GlcNAc
# Procedure, shortened: as §1
# [54] = target: Xyl(b1-4)Xyl(b1-4)Xyl(b1-4)Xyl(b1-4)Xyl
# Procedure, shortened: as §1
# [55] = target: Xyl(b1-4)Xyl(b1-4)Xyl(b1-4)Xyl(b1-4)Xyl(b1-4)Xyl
# Procedure, shortened: as §1
binder,measurement,setting,value
B1,glycan array binding signal (z-score),[1],-0.272
same,glycan array binding signal (z-score),[2],1.45
same,glycan array binding signal (z-score),[3],-0.266
same,glycan array binding signal (z-score),[4],-0.195
same,glycan array binding signal (z-score),[5],-0.195
same,glycan array binding signal (z-score),[6],-0.193
same,glycan array binding signal (z-score),[7],-0.219
same,glycan array binding signal (z-score),[8],0.036
same,glycan array binding signal (z-score),[9],-0.109
same,glycan array binding signal (z-score),[10],-0.195
same,glycan array binding signal (z-score),[11],-0.195
same,glycan array binding signal (z-score),[12],-0.117
same,glycan array binding signal (z-score),[13],-0.195
same,glycan array binding signal (z-score),[14],-0.195
same,glycan array binding signal (z-score),[15],-0.195
same,glycan array binding signal (z-score),[16],-0.195
same,glycan array binding signal (z-score),[17],-0.195
same,glycan array binding signal (z-score),[18],-0.195
same,glycan array binding signal (z-score),[19],-0.216
same,glycan array binding signal (z-score),[20],-0.195
same,glycan array binding signal (z-score),[21],-0.202
same,glycan array binding signal (z-score),[22],-0.195
same,glycan array binding signal (z-score),[23],-0.195
same,glycan array binding signal (z-score),[24],-0.166
same,glycan array binding signal (z-score),[25],-0.169
same,glycan array binding signal (z-score),[26],-0.192
same,glycan array binding signal (z-score),[27],-0.195
same,glycan array binding signal (z-score),[28],-0.073
same,glycan array binding signal (z-score),[29],-0.195
same,glycan array binding signal (z-score),[30],-0.195
same,glycan array binding signal (z-score),[31],-0.169
same,glycan array binding signal (z-score),[32],-0.195
same,glycan array binding signal (z-score),[33],-0.177
same,glycan array binding signal (z-score),[34],-0.195
same,glycan array binding signal (z-score),[35],-0.162
same,glycan array binding signal (z-score),[36],-0.14
same,glycan array binding signal (z-score),[37],-0.178
same,glycan array binding signal (z-score),[38],-0.183
same,glycan array binding signal (z-score),[39],-0.176
same,glycan array binding signal (z-score),[40],-0.195
same,glycan array binding signal (z-score),[41],-0.195
same,glycan array binding signal (z-score),[42],-0.159
same,glycan array binding signal (z-score),[43],-0.195
same,glycan array binding signal (z-score),[44],-0.162
same,glycan array binding signal (z-score),[45],-0.215
same,glycan array binding signal (z-score),[46],-0.154
same,glycan array binding signal (z-score),[47],-0.195
same,glycan array binding signal (z-score),[48],-0.324
same,glycan array binding signal (z-score),[49],-0.074
same,glycan array binding signal (z-score),[50],-0.195
same,glycan array binding signal (z-score),[51],-0.195
same,glycan array binding signal (z-score),[52],-0.195
same,glycan array binding signal (z-score),[53],-0.195
same,glycan array binding signal (z-score),[54],-0.195
same,glycan array binding signal (z-score),[55],-0.195

# Source: the supplement of paper PMC8728848
